Data taken from PubChem BioAssay AID686979 (National Center for Advancing Translational Sciences (NCATS), 2013).
“And” between values parts separate entries of the source, which are not always exact repeats. Equal entries are not always repeated. About 50,000 (12%) of roughly 420,000 compounds were called active. Inconclusive means that the source gave no clear call. Such entries were picked first, then a sample of the others. Calls come from the whole dose curve; as a rule, active = well fitted inhibition curve with a large enough effect; inconclusive = small, poorly fitted or top-dose-only effect; inactive = flat fitted curve, though single readings scatter. Potencies beside an inconclusive call are fits to weak or partial responses and may not hold up. More than one record can exist for a structure, and the calls need not agree.

Experiment: qHTS for Inhibitors of human tyrosyl-DNA phosphodiesterase 1 (TDP1): qHTS in cells in presence of CPT; note: nearly all actives have a fitted effect of over 55% in size
Conditions: chicken DT40 Tdp1-/-;hTDP1 cells + 20 nM CPT, ATP luminescence, 48 h; activity change, negative = growth inhibition: at 46.2 µM (top of the series)
Method in brief: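 Cell growth measured by CellTiter-Glo luminescence after a minimum 48 h, 37 C compound exposure with 20 nM CPT in Tdp1-knockout DT40 cells stably expressing hTDP1, seeded 400/well; qHTS titration format.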
% is set by controls: 0 for no effect and ±100 for the full control effect; potency is the fitted concentration of half-maximal effect; tags give direction and shape of the fitted curve.

SMILES	Potency	activity change, negative = growth inhibition
CCC(Sc1nc2nccnc2c(=O)n1Cc1ccc(C)cc1)C(=O)NC1CCCCC1 (configuration not stated)	inconclusive: 20.6 µM [inhibitor, single point]	
CC1=C(C(=O)Nc2ccccc2)C(c2ccc(C)o2)n2c(s/c(=C\c3ccco3)c2=O)=N1 (configuration not stated)	inconclusive: 22.4 µM [inhibitor, single point]	
CCOC(=O)C1CCCN(S(=O)(=O)c2csc(C(N)=O)c2)C1 (configuration not stated)	inconclusive: 8.2 µM [inhibitor, partial curve]	
COc1ccc(-c2c(C)cc3oc(=O)cc(-c4ccccc4)c3c2C)cc1OC	inconclusive: 20.6 µM [inhibitor, single point]	
CC(CNC(=O)c1cc(COc2ccc3ncccc3c2)on1)c1ccccc1 (configuration not stated)	active: 16.4 µM	
COc1ccccc1N1CCN(C(=O)c2cc3ccc4ccc(C)[nH]c4c3n2)CC1	inconclusive: 23.1 µM [inhibitor, single point]	
CS(=O)(=O)N(CC(=O)N1CCN(c2cccc(Cl)c2)CC1)c1ccccc1	inconclusive: 18.4 µM [inhibitor, single point]	
O=C(O)CCCC(=O)N1CCC(C(O)(c2ccccc2)c2ccccc2)CC1		inactive: -4.4%
CCCc1ccc2oc(C(=O)NCCN3CCCC(O)C3)c(C)c2c1 (configuration not stated)	inconclusive: 20.6 µM [inhibitor, single point]	
CCOc1ccc(-c2cc3nc(C4CCN(C(=O)OC(C)(C)C)CC4)c(C(=O)Nc4ccc(C)cc4C)cn3n2)cc1	active: 18.4 µM	
CC(C)c1nc(N2CCN(C(=O)c3ccccc3)CC2)c(C#N)c2c1COC(C)(C)C2	inconclusive: 29.1 µM [inhibitor, single point]	
Cc1ccc(CNC(=O)Cn2c(=O)n(-c3cccc(Cl)c3)c(=O)c3sc4ccccc4c32)cc1	inconclusive: 25.9 µM [inhibitor, single point]	
C=CC(COCc1ccccc1)N(C(=O)OC(C)(C)C)S(=O)(=O)c1ccccc1Br (configuration not stated)	inconclusive: 29.1 µM [inhibitor, partial curve, poor fit]	
CN(C)S(=O)(=O)c1cccc(COc2ncnc3c(Cl)cc(Cl)cc23)c1	inconclusive: 18.4 µM [inhibitor, partial curve]	
Cc1nc(Sc2ccccc2)c(C#N)c(C)c1[N+](=O)[O-]	inconclusive: 29.1 µM [inhibitor, single point]	
O=C(NCCc1c[nH]c2ccccc12)C(=O)NCC1OCCN1S(=O)(=O)c1ccccc1 (configuration not stated)	inconclusive: 32.6 µM [inhibitor, single point]	
CC1(C(=O)Nc2ccc3c(c2)OCCO3)CSCC(=O)N1C1CC1 (configuration not stated)		inactive: 18%
O=C(Nc1ccc(Cl)c([N+](=O)[O-])c1)ONC1=NCCCCC1	inconclusive: 13 µM [inhibitor, partial curve, poor fit]	
CCc1nc(Nc2cc(OC)ccc2OC)c2oc3ccccc3c2n1	inconclusive: 4.11 µM [inhibitor, full curve]	
O=C(COc1cccc2ccccc12)N1CCN(c2ccccc2)CC1	inconclusive: 29.1 µM [inhibitor, single point]	
CC1(C)CC(=O)CC2(C1)NCC(c1ccccc1)c1c2[nH]c2ccccc12 (configuration not stated)	inconclusive: 18.4 µM [inhibitor, single point]	
CN(C)c1ccc(NC(=O)CC2NCCNC2=O)cc1 (configuration not stated)		inactive: -2.54%
COc1ccc(NC(=O)c2oc3cc(C)c(C)cc3c2C)c(OC)c1		inactive: -18.1%

SMILES	Potency	activity change, negative = growth inhibition
FC(F)(F)c1ccccc1-c1cncnc1Nc1ccccc1		inactive: -0.0884%
CC(CNC(=O)CCCn1c(=O)c2cccn2c2cccnc21)c1ccccc1 (configuration not stated)	inconclusive: 29.1 µM [inhibitor, single point] and inconclusive: 23.1 µM [inhibitor, single point]	
O=C(Nc1ccc(Cl)cc1)Nc1ccc(N2CCCC2)c(S(=O)(=O)Nc2ccccc2Cl)c1	active: 5.17 µM	
COc1cc(C(=O)Nc2cc(C)ccc2C)ccc1OCc1c(C)noc1C	inconclusive: 16.4 µM [inhibitor, partial curve, poor fit]	
COc1c(-c2ccc(O)c(O)c2)oc2cc(O)cc(O)c2c1=O	active: 10.3 µM	
COc1ccccc1N1CCN(C(=O)COc2ccc(Cl)cc2Br)CC1	inconclusive: 29.1 µM [inhibitor, single point]	
O=C(c1ccc(CS(=O)c2ccccc2Cl)o1)N1CCN(c2cccc(Cl)c2)CC1 (configuration not stated)	active: 0.259 µM	
Cc1ccc(/C=C2/SC(=S)N(CCC(=O)N3CCN(C)CC3)C2=O)cc1	inconclusive: 29.1 µM [inhibitor, single point]	
CC1(C)C(O)C=C[C@@]2(C)C1CC(=O)O[C@@]1(C)C3=CC(=O)OC(c4ccoc4)[C@]3(C)CCC21 (some centres not stated)	inconclusive: 20.6 µM [inhibitor, single point]	
CCOC(=O)CC(=O)CSc1nc(-c2cccnc2)ccc1C#N	inconclusive: 2.06 µM [inhibitor, full curve]	
C/C=C/c1cccc(-c2nc(C(=O)N3CCCCC3)cc3c2[C@H](CCO)N(C(=O)NC(C)C)C3)c1		inactive: -9.58%
COc1cc(OC)c(OC)cc1CN1CCOc2ccc(CN3C[C@@H](C)O[C@@H](C)C3)cc2C1		inactive: -18.6% [at 9.04 µM]
O=C(NCCO)C1CCN(C(=O)c2ccc(-c3ccccc3)cc2)CC1		inconclusive: -9.43% [inhibitor]
CCCCCCN1C[C@@H](n2cc(-c3ccc(F)cc3)nn2)[C@H](O)C[C@@H]1c1ccccc1	inconclusive: 29.1 µM [inhibitor, single point]	
CCCCCCCCOc1ccc(C2CC(=O)NC2=O)cc1 (configuration not stated)		inactive: -9.48%
C/C(=N/NC(=O)c1ccco1)c1cccc(NC(=O)c2ccc(C)s2)c1	inconclusive: 23.1 µM [inhibitor, single point]	
O=C(Cn1nnc(-c2ccccc2-n2cnnn2)n1)c1ccccc1		inactive: 0.393%
CC(C)(C)OC(=O)COc1cc(O)c2c(=O)cc(-c3ccccc3)oc2c1	inconclusive: 14.6 µM [inhibitor, single point]	
COc1cccc(CNC(=O)c2ccc(NC(=O)N3CC(C)Sc4ccccc43)cc2)c1 (configuration not stated)	active: 18.4 µM	
O=C(Nc1ccccc1F)c1ccc(C(=O)c2ccccc2)cc1	inconclusive: 29.1 µM [inhibitor, single point]	
CCOc1cccc2sc(N(CCN(CC)CC)C(=O)c3ccco3)nc12	inconclusive: 23.1 µM [inhibitor, single point]	
O=C(Nc1ccc(C(=O)Oc2ccccc2)c(O)c1)c1ccco1	inconclusive: 2.59 µM [inhibitor, partial curve, poor fit]	
Cc1cccc(CCNC(=O)C2CCCN(S(=O)(=O)c3ccc4c(c3)oc(=O)n4C)C2)c1 (configuration not stated)	inconclusive: 25.9 µM [inhibitor, single point]	

SMILES	Potency	activity change, negative = growth inhibition
COc1ccc(CCNCC2C(Oc3ccc(Cl)cc3)C(=O)N2c2ccccc2C)cc1OC (configuration not stated)	inconclusive: 23.1 µM [inhibitor, single point]	
COc1cccc(C2CC(c3ccc(C)cc3)n3nc(N)nc3N2)c1 (configuration not stated)	inconclusive: 16.4 µM [inhibitor, partial curve]	
COc1ccc(OC)c2[nH]c(=O)c(CCNC(=O)c3ccc4c(c3)OCO4)cc12	inconclusive: 29.1 µM [inhibitor, single point]	
COc1ccc(NC(=O)N2Cc3ccccc3CC2C(=O)NC(C)(C)C)cc1 (configuration not stated)	inconclusive: 16.4 µM [inhibitor, single point]	
Cc1cccc(C)c1NC(=O)CNC(=O)c1c(-c2ccccc2)noc1C		inactive: 10.7%
COc1cc(NC(=O)c2ccc(NC(=O)N3CCSc4ncccc43)cc2)cc(OC)c1	active: 14.6 µM	
Cc1c(Cl)cccc1NC(=O)C1COc2ccccc2O1 (configuration not stated)		inactive: -2.61%
COc1ccc(CCNC(=O)c2ccc(CNS(=O)(=O)c3ccccc3)cc2)cc1OC	active: 18.4 µM	
Nc1nc(NCCc2ccc(O)cc2)nc2nc(-c3ccco3)nn12	active: 14.6 µM	
CC(C)c1nnc(NC(=O)CC(=O)Nc2ccccc2C(=O)O)s1		inactive: -1.87%
Cc1ccc(-n2[nH]c(C)c(/C=N/N3C(=O)c4cccc5cccc(c45)C3=O)c2=O)cc1	inconclusive: 16.4 µM [inhibitor, single point]	
CCCCCCCCCCCC(=O)N(CCO)CCO	inconclusive: 33.5 µM [inhibitor, single point]	
NS(=O)(=O)c1ccc(N2CCCC2=O)c([N+](=O)[O-])c1		inactive: 7.69%
C=CCn1c(SCC(=O)NCc2cccs2)nnc1C1CCCCC1	inconclusive: 29.1 µM [inhibitor, single point]	
O=C(CSc1cn(CC(=O)N2CCCC2)c2ccccc12)Nc1cc(C(F)(F)F)ccc1Cl	active: 18.4 µM	
FC(F)(F)c1cnc(/C=C/Nc2ccccc2Cl)c(Cl)c1		inactive: -5.57%
CCOC(=O)c1ccc(S(=O)(=O)N2CC(=O)Nc3ccccc32)cc1	active: 18.4 µM	
COCCn1nnnc1C(c1ccc(OC)cc1)N1CCN(C(=O)c2ccco2)CC1 (configuration not stated)		inactive: -0.163%
CCc1ccccc1N(C(=O)c1snc(C(N)=O)c1N)C(C(=O)NCC1CCCO1)c1ccc(N(C)C)cc1 (configuration not stated)	inconclusive: 18.4 µM [inhibitor, single point]	
CN1CCN(S(=O)(=O)c2ccc(Nc3cccc(Cl)c3)c([N+](=O)[O-])c2)CC1	inconclusive: 29.1 µM [inhibitor, single point]	
CC(C)Oc1ccc(S(=O)(=O)N2CCOCC2)cc1NC(=O)CSC(=S)N1CCCC1	inconclusive: 29.1 µM [inhibitor, single point]	
